Assay results: publication PMC5892938
The other results are listed elsewhere or left out. At the low end of the ranking the order means little.
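Further: DESeq read counts versus GST-SBP nonspecific binding control pulldown.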

What follows are sequences tested against GST-SBP-SLBP (stem-loop binding protein) (UniProt Q14493) (assay: targeted RNA Bind-n-Seq). Details: RBNS binding buffer: 25 mM Tris pH 7.5, 150 mM KCl, 3 mM MgCl2, 0.1% Tween, 0.5 mg/mL BSA, 1 mM DTT; 27 nM protein, 750 pM RNA pool; temperature not stated; high values mean tight binding.
“GGUCACGUCUCAAUCAACUCAUCGUCAGGAGUUUUCUCCUGCAUUCUCAACAGCUCGCAGUCAAG” was tested, and the binding signal (log2 fold change) was 0.00916.
“GGUCACGUCUCAAUCAACUCUUCCUCAGGAGUUUACUCCUGUUAUCUCAACAGCUCGCAGUCAAG” was tested, and the binding signal (log2 fold change) was 0.0712.
Sequence “GGUCACGUCUCAAUCAACUCUUCAGAGGGGGGGAAAACCCCUUUACCCUCAUCGUCAACAGCUCGCAGUCAAG” has a binding signal (log2 fold change) of -0.269.
For “GGUCACGUCUCAAUCAACUCAUCCCCCAGGGAAACCCCUGGCAAACUCAACAGCUCGCAGUCAAG”, the binding signal (log2 fold change) was -0.179.
“GGUCACGUCUCAAUCAACUCUUCUCCAGGAGUUUCCUCCUGUUUUCUCAACAGCUCGCAGUCAAG” was tested, and the binding signal (log2 fold change) was 0.0373.
In the case of “GGUCACGUCUCAAUCAACUCUAUUUCAGGAGUUUUCUCCUGUUUAUUCAACAGCUCGCAGUCAAG”, the binding signal (log2 fold change) was -0.0417.
Sequence “GGUCACGUCUCAAUCAACUCAACUCCCAGGGAAAUCCCUGGUAAUUUCAACAGCUCGCAGUCAAG” has a binding signal (log2 fold change) of 0.119.
With “GGUCACGUCUCAAUCAACUCUAUUUCAGGAGUUUACUCCUGUUUACUCAACAGCUCGCAGUCAAG” the binding signal (log2 fold change) was -0.0564.
In the case of “GGUCACGUCUCAAUCAACUCAUCCCCAGGAGUUUACUCCUGUAAUUUCAACAGCUCGCAGUCAAG”, the binding signal (log2 fold change) was 0.0863.
“GGUCACGUCUCAAUCAACUCUACUCCCAGGGAAAUCCCUGGUUAUUUCAACAGCUCGCAGUCAAG” showed a binding signal (log2 fold change) of -0.142.
For “GGUCACGUCUCAAUCAACUCUAGUCCAGGAGUUUCCUCCUGUAAUCUCAACAGCUCGCAGUCAAG”, the binding signal (log2 fold change) was 0.0581.
Work on “GGUCACGUCUCAAUCAACUCUAAAGAGGGGGGGAAAACCCCUUUGCCCUCCAACUCAACAGCUCGCAGUCAAG” yielded a binding signal (log2 fold change) of 0.187.
For “GGUCACGUCUCAAUCAACUCCAUAGAGGGGGGGAAAACCCCUUUACCCUCCAUAUCAACAGCUCGCAGUCAAG”, the binding signal (log2 fold change) was -0.131.
“GGUCACGUCUCAAUCAACUCAUCCCCAGGAGUUUCCUCCUGCAAAUUCAACAGCUCGCAGUCAAG” gave a binding signal (log2 fold change) of 0.206.
“GGUCACGUCUCAAUCAACUCCAAAGAGGGGGGGAAAACCCCUUUACCCUCCAUAUCAACAGCUCGCAGUCAAG” gave a binding signal (log2 fold change) of 0.0351.
“GGUCACGUCUCAAUCAACUCAAAAGAGGGGGGGAAAACCCCUUUGCCCUCGUAAUCAACAGCUCGCAGUCAAG” gave a binding signal (log2 fold change) of 0.177.
Work on “GGUCACGUCUCAAUCAACUCUUUUCCAGGAGUUUUCUCCUGCUAUUUCAACAGCUCGCAGUCAAG” yielded a binding signal (log2 fold change) of -0.0723.
Work on “GGUCACGUCUCAAUCAACUCAACUUCAGGAGUUUGCUCCUGUUUAUUCAACAGCUCGCAGUCAAG” yielded a binding signal (log2 fold change) of 0.0896.
“GGUCACGUCUCAAUCAACUCAAUCCCCAGGGAAAGCCCUGGUAAACUCAACAGCUCGCAGUCAAG” showed a binding signal (log2 fold change) of 0.271.
In the case of “GGUCACGUCUCAAUCAACUCAUCUUCCAGGGAAACCCCUGGUUAUCUCAACAGCUCGCAGUCAAG”, the binding signal (log2 fold change) was -0.13.
For “GGUCACGUCUCAAUCAACUCUAUCCCAGGAGUUUUCUCCUGUUAAUUCAACAGCUCGCAGUCAAG”, the binding signal (log2 fold change) was 0.172.
“GGUCACGUCUCAAUCAACUCUUUUUCAGGAGUUUUCUCCUGUUUACUCAACAGCUCGCAGUCAAG” was tested, and the binding signal (log2 fold change) was -0.021.
Work on “GGUCACGUCUCAAUCAACUCUAUUCCAGGAGUUUACUCCUGCUUAUUCAACAGCUCGCAGUCAAG” yielded a binding signal (log2 fold change) of -0.171.
“GGUCACGUCUCAAUCAACUCAAUUUCCAGGGAAAACCCUGGUUAACUCAACAGCUCGCAGUCAAG” gave a binding signal (log2 fold change) of -0.282.
Sequence “GGUCACGUCUCAAUCAACUCUUACGAGGGGGGGAAAACCCCUUUGCCCUCAUUCUCAACAGCUCGCAGUCAAG” has a binding signal (log2 fold change) of 0.195.
Work on “GGUCACGUCUCAAUCAACUCAACUCCCAGGGAAAGCCCUGGCUAUUUCAACAGCUCGCAGUCAAG” yielded a binding signal (log2 fold change) of -0.0393.
Work on “GGUCACGUCUCAAUCAACUCUACGCCAGGAGUUUUCUCCUGUAUAUUCAACAGCUCGCAGUCAAG” yielded a binding signal (log2 fold change) of -0.0843.
“GGUCACGUCUCAAUCAACUCCACGGAGGGGGGGAAAACCCCUUUACCCUCAUAAUCAACAGCUCGCAGUCAAG” gave a binding signal (log2 fold change) of 0.229.
“GGUCACGUCUCAAUCAACUCAUCAGAGGGGGGGAAAACCCCUUUACCCUCCGUUUCAACAGCUCGCAGUCAAG” was tested, and the binding signal (log2 fold change) was 0.0998.
Sequence “GGUCACGUCUCAAUCAACUCUUCGCCCAGGGAAACCCCUGGUUUAUUCAACAGCUCGCAGUCAAG” has a binding signal (log2 fold change) of -0.186.
In the case of “GGUCACGUCUCAAUCAACUCUAUUUCAGGAGUUUCCUCCUGUUAUUUCAACAGCUCGCAGUCAAG”, the binding signal (log2 fold change) was -0.0478.
“GGUCACGUCUCAAUCAACUCUAUCGAGGGGGGGAAAACCCCUUUGCCCUCACAAUCAACAGCUCGCAGUCAAG” showed a binding signal (log2 fold change) of -0.0772.
“GGUCACGUCUCAAUCAACUCUCAAGAGGGGGGGAAAACCCCUUUACCCUCACAUUCAACAGCUCGCAGUCAAG” showed a binding signal (log2 fold change) of -0.0105.
In the case of “GGUCACGUCUCAAUCAACUCAAUUCCAGGAGUUUGCUCCUGCAUUCUCAACAGCUCGCAGUCAAG”, the binding signal (log2 fold change) was 0.0215.
“GGUCACGUCUCAAUCAACUCCCACGAGGGGGGGAAAACCCCUUUACCCUCACUUUCAACAGCUCGCAGUCAAG” showed a binding signal (log2 fold change) of -0.0166.
With “GGUCACGUCUCAAUCAACUCUUCCUCAGGAGUUUCCUCCUGUUAUGUCAACAGCUCGCAGUCAAG” the binding signal (log2 fold change) was 0.0573.
“GGUCACGUCUCAAUCAACUCUUAAGAGGGGGGGAAAACCCCUUUACCCUCAUCGUCAACAGCUCGCAGUCAAG” was tested, and the binding signal (log2 fold change) was 0.252.
In the case of “GGUCACGUCUCAAUCAACUCUUCUCCAGGAGUUUACUCCUGCAUACUCAACAGCUCGCAGUCAAG”, the binding signal (log2 fold change) was 0.123.
Work on “GGUCACGUCUCAAUCAACUCAUCUUCCAGGGAAAGCCCUGGCUUAUUCAACAGCUCGCAGUCAAG” yielded a binding signal (log2 fold change) of -0.0886.
With “GGUCACGUCUCAAUCAACUCAUCAGAGGGGGGGAAAACCCCUUUACCCUCAAUCUCAACAGCUCGCAGUCAAG” the binding signal (log2 fold change) was 0.0499.
“GGUCACGUCUCAAUCAACUCUUCUUCAGGAGUUUCCUCCUGUUAUCUCAACAGCUCGCAGUCAAG” gave a binding signal (log2 fold change) of 0.106.
“GGUCACGUCUCAAUCAACUCUUCUCCCAGGGAAAGCCCUGGUUUAUUCAACAGCUCGCAGUCAAG” gave a binding signal (log2 fold change) of 0.125.
Sequence “GGUCACGUCUCAAUCAACUCAACUUCAGGAGUUUUCUCCUGUUAAUUCAACAGCUCGCAGUCAAG” has a binding signal (log2 fold change) of -0.0599.
For “GGUCACGUCUCAAUCAACUCUUCUCCCAGGGAAAACCCUGGCAAUGUCAACAGCUCGCAGUCAAG”, the binding signal (log2 fold change) was 0.228.
“GGUCACGUCUCAAUCAACUCAUUCCCCAGGGAAACCCCUGGCUUAUUCAACAGCUCGCAGUCAAG” showed a binding signal (log2 fold change) of -0.101.
For “GGUCACGUCUCAAUCAACUCUUUCUCCAGGGAAAUCCCUGGCUUAUUCAACAGCUCGCAGUCAAG”, the binding signal (log2 fold change) was 0.0356.
“GGUCACGUCUCAAUCAACUCAUUAGAGGGGGGGAAAACCCCUUUACCCUCCAUAUCAACAGCUCGCAGUCAAG” was tested, and the binding signal (log2 fold change) was -0.08.
“GGUCACGUCUCAAUCAACUCAUCUCCAGGAGUUUACUCCUGUUUUUUCAACAGCUCGCAGUCAAG” gave a binding signal (log2 fold change) of -0.212.
Sequence “GGUCACGUCUCAAUCAACUCAUCUUCAGGAGUUUCCUCCUGUUAUUUCAACAGCUCGCAGUCAAG” has a binding signal (log2 fold change) of -0.00462.
“GGUCACGUCUCAAUCAACUCUAUCUCCAGGGAAACCCCUGGUAUACUCAACAGCUCGCAGUCAAG” was tested, and the binding signal (log2 fold change) was 0.256.
“GGUCACGUCUCAAUCAACUCUUCCUCCAGGGAAAACCCUGGCAAAUUCAACAGCUCGCAGUCAAG” was tested, and the binding signal (log2 fold change) was 0.0751.
In the case of “GGUCACGUCUCAAUCAACUCAUCAGAGGGGGGGAAAACCCCUUUACCCUCCAACUCAACAGCUCGCAGUCAAG”, the binding signal (log2 fold change) was -0.437.
Sequence “GGUCACGUCUCAAUCAACUCAACGGCAGGAGUUUACUCCUGGAAAUUCAACAGCUCGCAGUCAAG” has a binding signal (log2 fold change) of -0.134.
In the case of “GGUCACGUCUCAAUCAACUCUACUCCAGGAGUUUCCUCCUGCAAAUUCAACAGCUCGCAGUCAAG”, the binding signal (log2 fold change) was 0.0392.
Sequence “GGUCACGUCUCAAUCAACUCUUCCCCAGGAGUUUACUCCUGUUUUUUCAACAGCUCGCAGUCAAG” has a binding signal (log2 fold change) of -0.00655.
In the case of “GGUCACGUCUCAAUCAACUCUAUUCCCAGGGAAACCCCUGGCUUACUCAACAGCUCGCAGUCAAG”, the binding signal (log2 fold change) was -0.00656.
Sequence “GGUCACGUCUCAAUCAACUCAUUUUCAGGAGUUUGCUCCUGCUUUCUCAACAGCUCGCAGUCAAG” has a binding signal (log2 fold change) of 0.00836.
“GGUCACGUCUCAAUCAACUCAUCUUCCAGGGAAAGCCCUGGCAAAUUCAACAGCUCGCAGUCAAG” gave a binding signal (log2 fold change) of -0.23.
Sequence “GGUCACGUCUCAAUCAACUCACACGAGGGGGGGAAAACCCCUUUACCCUCAACAUCAACAGCUCGCAGUCAAG” has a binding signal (log2 fold change) of -0.196.
In the case of “GGUCACGUCUCAAUCAACUCAAUUCCCAGGGAAACCCCUGGCAAACUCAACAGCUCGCAGUCAAG”, the binding signal (log2 fold change) was -0.309.
Sequence “GGUCACGUCUCAAUCAACUCAGUCCCCAGGGAAACCCCUGGUAAAUUCAACAGCUCGCAGUCAAG” has a binding signal (log2 fold change) of -0.287.
Sequence “GGUCACGUCUCAAUCAACUCAACAGAGGGGGGGAAAACCCCUUUACCCUCAUUAUCAACAGCUCGCAGUCAAG” has a binding signal (log2 fold change) of 0.00639.
Work on “GGUCACGUCUCAAUCAACUCAACUCCCAGGGAAACCCCUGGCAUACUCAACAGCUCGCAGUCAAG” yielded a binding signal (log2 fold change) of -0.147.
Sequence “GGUCACGUCUCAAUCAACUCAAUUCCAGGAGUUUACUCCUGCAUACUCAACAGCUCGCAGUCAAG” has a binding signal (log2 fold change) of -0.0319.
“GGUCACGUCUCAAUCAACUCAACUCCCAGGGAAAUCCCUGGUAUUUUCAACAGCUCGCAGUCAAG” gave a binding signal (log2 fold change) of -0.00117.
With “GGUCACGUCUCAAUCAACUCAAUCUCCAGGGAAAGCCCUGGUUUUUUCAACAGCUCGCAGUCAAG” the binding signal (log2 fold change) was -0.235.
With “GGUCACGUCUCAAUCAACUCAUCCUCAGGAGUUUCCUCCUGUUAAUUCAACAGCUCGCAGUCAAG” the binding signal (log2 fold change) was 0.243.
Work on “GGUCACGUCUCAAUCAACUCAUCGUCAGGAGUUUUCUCCUGCAUAUUCAACAGCUCGCAGUCAAG” yielded a binding signal (log2 fold change) of -0.0258.
Sequence “GGUCACGUCUCAAUCAACUCCUAAGAGGGGGGGAAAACCCCUUUGCCCUCAUCGUCAACAGCUCGCAGUCAAG” has a binding signal (log2 fold change) of 0.0648.
With “GGUCACGUCUCAAUCAACUCAACUUCCAGGGAAAACCCUGGUAAACUCAACAGCUCGCAGUCAAG” the binding signal (log2 fold change) was -0.141.
“GGUCACGUCUCAAUCAACUCAACUUCAGGAGUUUCCUCCUGCUAAUUCAACAGCUCGCAGUCAAG” showed a binding signal (log2 fold change) of 0.0615.
For “GGUCACGUCUCAAUCAACUCAACUCCAGGAGUUUCCUCCUGUAUUCUCAACAGCUCGCAGUCAAG”, the binding signal (log2 fold change) was -0.225.
In the case of “GGUCACGUCUCAAUCAACUCAACUUCCAGGGAAACCCCUGGCUUACUCAACAGCUCGCAGUCAAG”, the binding signal (log2 fold change) was 0.0953.
For “GGUCACGUCUCAAUCAACUCUUCGCCAGGAGUUUUCUCCUGCAAUUUCAACAGCUCGCAGUCAAG”, the binding signal (log2 fold change) was -0.078.
